Whole data set: some 81,000 sequences, median “one-hybrid fitness for binding NBS DNA” near -0.1, cut for the highest 2% near 0.36. This is one part of the list.
B1: Caulobacter ParB omega fusion; a variant is named by its letters at X, in order, B8GW30 (parent)
chain: MESVVVGEPGMSEGRRGLGRGLSALLGEVDAAPAQAPGEQLGGSREAPIEILQRNPDQPRRTFREEDLEDLSNSIREKGVLQPILVRPSPDTAGEYQIVAGERAWRAAQRAGLKTVPIMVRELDDLAVLEIGIIENVQRADLNVLEEALSYKVLMEKFERTQENIAQTIGKSXSHVANXMRLLXLPDEVQSYLVSGELTAXHARAIAAAADPVALAKQIIEGGLSVRETEALARKAPNLSAGKSKGGRPPRVKDTDTQALESDLSSVLGLDVSIDHRGSTGTLTITYATLEQLDDLCNRLTRGI

Variants of: B1
Assay: one-hybrid fitness for binding NBS DNA (the Noc-binding site; scaled: cognate 1, non-cognate 0); higher = stronger binding
Conditions: with NBS DNA site
How it was run: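 Bacterial one-hybrid selection in E. coli USO rpoZ- hisB- pyrF- with a HIS3 reporter carrying the site 19 bp from the promoter, screening Caulobacter ParB libraries with four specificity codons randomised (NNS). Cells grew 48 hours at 37°C on M9-minus-histidine plus 0.1 mM IPTG and 5 mM 3-AT. Plasmids before and after selection were Illumina-sequenced, three replicate libraries pooled, and variants under 10 reads dropped. Fitness is the log change in variant-to-wild-type read ratio, rescaled to cognate 1, non-cognate 0.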

| Variant | one-hybrid fitness for binding NBS DNA |
| --- | --- |
| ECDS | ≤ 0.2 |
| PYSG | ≤ 0.2 |
| ESKR | 0.206 |
| SWSR | ≤ 0.2 |
| HSAA | ≤ 0.2 |
| FRST | ≤ 0.2 |
| TNVL | ≤ 0.2 |
| LTRF | ≤ 0.2 |
| NCER | ≤ 0.2 |
| NNQE | ≤ 0.2 |
| RMTT | 0.434 |
| LAIL | ≤ 0.2 |
| NPTC | ≤ 0.2 |
| PVCR | ≤ 0.2 |
| QTEL | ≤ 0.2 |
| GNDS | ≤ 0.2 |
| ANHI | ≤ 0.2 |
| THVT | ≤ 0.2 |
| CQTT | ≤ 0.2 |
| HINA | ≤ 0.2 |
| QLNA | 0.219 |
| IKTC | ≤ 0.2 |
| SVFV | ≤ 0.2 |
| VGSG | ≤ 0.2 |

| Variant | one-hybrid fitness for binding NBS DNA |
| --- | --- |
| NKQR | ≤ 0.2 |
| QELN | ≤ 0.2 |
| FGGC | ≤ 0.2 |
| WSRG | ≤ 0.2 |
| VTSK | ≤ 0.2 |
| NVKQ | ≤ 0.2 |
| VMGL | ≤ 0.2 |
| AYPD | ≤ 0.2 |
| TGTE | ≤ 0.2 |
| QTIH | 0.221 |
| GCAA | ≤ 0.2 |
| EAEG | ≤ 0.2 |
| LLRK | ≤ 0.2 |
| PPLD | ≤ 0.2 |
| CPGT | ≤ 0.2 |
| IFHS | ≤ 0.2 |
| DAQW | ≤ 0.2 |
| DHHV | ≤ 0.2 |
| IATE | ≤ 0.2 |
| CNSS | ≤ 0.2 |
| GYWG | ≤ 0.2 |
| MSLL | ≤ 0.2 |
| QQAR | 0.654 |
| WALC | ≤ 0.2 |

| Variant | one-hybrid fitness for binding NBS DNA |
| --- | --- |
| WGHS | ≤ 0.2 |
| FDRR | ≤ 0.2 |
| GLLR | ≤ 0.2 |
| TRNF | ≤ 0.2 |
| EAYR | ≤ 0.2 |
| CATI | ≤ 0.2 |
| QSKC | 0.367 |
| TNVR | ≤ 0.2 |
| ANKM | ≤ 0.2 |
| TCYK | ≤ 0.2 |
| MKFT | ≤ 0.2 |
| NMYI | ≤ 0.2 |
| RLMN | ≤ 0.2 |
| WRRA | ≤ 0.2 |
| ERKV | ≤ 0.2 |
| LKQR | ≤ 0.2 |
| MGTG | ≤ 0.2 |
| RSWP | ≤ 0.2 |
| QPWY | ≤ 0.2 |
| DPTI | ≤ 0.2 |
| WTHP | ≤ 0.2 |
| DPVG | ≤ 0.2 |
| FRLR | ≤ 0.2 |
| QCIV | ≤ 0.2 |

| Variant | one-hybrid fitness for binding NBS DNA |
| --- | --- |
| FYKL | ≤ 0.2 |
| REPT | ≤ 0.2 |
| HSKE | ≤ 0.2 |
| IRES | ≤ 0.2 |
| DVFN | ≤ 0.2 |
| WARM | ≤ 0.2 |
| QKSD | ≤ 0.2 |
| CLQR | ≤ 0.2 |
| FDIR | ≤ 0.2 |
| PWLK | ≤ 0.2 |
| VCQG | ≤ 0.2 |
| YATI | ≤ 0.2 |
| HTGR | ≤ 0.2 |
| YACC | ≤ 0.2 |
| QRPP | ≤ 0.2 |
| YTVW | ≤ 0.2 |
| MSNN | ≤ 0.2 |
| LGNR | ≤ 0.2 |
| TPDW | ≤ 0.2 |
| KCTV | ≤ 0.2 |
| HIYA | ≤ 0.2 |
| PLDF | ≤ 0.2 |
| HQTY | ≤ 0.2 |
| KALW | ≤ 0.2 |

| Variant | one-hybrid fitness for binding NBS DNA |
| --- | --- |
| SRAP | ≤ 0.2 |
| VCSD | ≤ 0.2 |
| MQTC | ≤ 0.2 |
| VRDT | ≤ 0.2 |
| NFAC | ≤ 0.2 |
| YLWR | ≤ 0.2 |
| VILP | ≤ 0.2 |
| FRPE | ≤ 0.2 |
| PNWT | ≤ 0.2 |
| QITK | ≤ 0.2 |
| RQHP | ≤ 0.2 |
| GPRP | ≤ 0.2 |
| HDMC | ≤ 0.2 |
| DYCS | ≤ 0.2 |
| MSRE | ≤ 0.2 |
| VKST | ≤ 0.2 |
| FHPR | ≤ 0.2 |
| PAVP | ≤ 0.2 |
| TNIC | ≤ 0.2 |
| QCSS | 0.449 |
| LPVP | ≤ 0.2 |
| IQKV | ≤ 0.2 |
| NFAY | ≤ 0.2 |
| NKAA | ≤ 0.2 |

| Variant | one-hybrid fitness for binding NBS DNA |
| --- | --- |
| MTHR | ≤ 0.2 |
| RCFW | ≤ 0.2 |
| FSTS | ≤ 0.2 |
| NGKR | ≤ 0.2 |
| QQFW | ≤ 0.2 |
| VVSV | ≤ 0.2 |
| WTHS | ≤ 0.2 |
| KRAP | ≤ 0.2 |
| NHPW | ≤ 0.2 |
| REHC | ≤ 0.2 |
| WTDW | ≤ 0.2 |
| QTCA | 0.378 |
| CCLR | ≤ 0.2 |
| HQGG | ≤ 0.2 |
| QYSA | 0.201 |
| MPRT | ≤ 0.2 |
| DPPW | ≤ 0.2 |
| RGHC | ≤ 0.2 |
| KRAH | ≤ 0.2 |
| PHMH | ≤ 0.2 |
| LHKC | ≤ 0.2 |
| AAVG | ≤ 0.2 |
| PRWV | ≤ 0.2 |
| FSAL | ≤ 0.2 |

| Variant | one-hybrid fitness for binding NBS DNA |
| --- | --- |
| QVCK | ≤ 0.2 |
| EVWS | ≤ 0.2 |
| ISGM | ≤ 0.2 |
| WMML | ≤ 0.2 |
| RNVW | ≤ 0.2 |
| VDCG | ≤ 0.2 |
| ALMW | ≤ 0.2 |
| PCCG | ≤ 0.2 |
| LNTN | ≤ 0.2 |
| TDVT | ≤ 0.2 |
| HRYK | ≤ 0.2 |
| LIDL | ≤ 0.2 |
| DPRI | ≤ 0.2 |
| TTYS | ≤ 0.2 |
| LRMT | ≤ 0.2 |
| GSIY | ≤ 0.2 |
| EFRR | 0.249 |
| RITC | ≤ 0.2 |
| DANR | ≤ 0.2 |
| KIYC | ≤ 0.2 |
| TMLS | ≤ 0.2 |
| GAKH | ≤ 0.2 |
| RDSL | ≤ 0.2 |
| AQCS | ≤ 0.2 |

| Variant | one-hybrid fitness for binding NBS DNA |
| --- | --- |
| ENDY | ≤ 0.2 |
| SFST | ≤ 0.2 |
| EFMA | ≤ 0.2 |
| PRRP | ≤ 0.2 |
| NEHF | ≤ 0.2 |
| FTKT | ≤ 0.2 |
| LNIC | ≤ 0.2 |
| HISG | ≤ 0.2 |
| TGWV | ≤ 0.2 |
| QHLN | ≤ 0.2 |
| QTTQ | 0.242 |
| LLEW | ≤ 0.2 |
| QLSA | ≤ 0.2 |
| ERYY | ≤ 0.2 |
| SVGA | ≤ 0.2 |
| RSGF | ≤ 0.2 |
| FQHV | ≤ 0.2 |
| IYLS | ≤ 0.2 |
| NTCR | ≤ 0.2 |
| LPSI | ≤ 0.2 |
| SVAT | ≤ 0.2 |
| RKIC | ≤ 0.2 |
| LLEA | ≤ 0.2 |
| QQLS | 0.373 |

| Variant | one-hybrid fitness for binding NBS DNA |
| --- | --- |
| MLDG | ≤ 0.2 |
| YMYP | ≤ 0.2 |
| WMCC | ≤ 0.2 |
| TAPD | ≤ 0.2 |
| AVHC | ≤ 0.2 |
| DKGM | ≤ 0.2 |
| WSCI | ≤ 0.2 |
| LWST | ≤ 0.2 |
| KSNE | ≤ 0.2 |
| ICTV | ≤ 0.2 |
| VKPF | ≤ 0.2 |
| PDAA | ≤ 0.2 |
| RSIC | ≤ 0.2 |
| QYIK | ≤ 0.2 |
| DDQF | ≤ 0.2 |
| TRND | ≤ 0.2 |
| THLS | ≤ 0.2 |
| WDIR | ≤ 0.2 |
| QLCD | ≤ 0.2 |
| GWYC | ≤ 0.2 |
| SDPY | ≤ 0.2 |
| VMLN | ≤ 0.2 |
| YSQY | ≤ 0.2 |
| HGAH | ≤ 0.2 |

| Variant | one-hybrid fitness for binding NBS DNA |
| --- | --- |
| VTPD | ≤ 0.2 |
| PLNG | ≤ 0.2 |
| CFTS | ≤ 0.2 |
| RFFW | ≤ 0.2 |
| RASA | ≤ 0.2 |
| TSKI | ≤ 0.2 |
| ICTC | ≤ 0.2 |
| GCSF | ≤ 0.2 |
| LLKL | ≤ 0.2 |
| KGIS | ≤ 0.2 |
| SYAI | ≤ 0.2 |
| AHVY | ≤ 0.2 |
| APVV | ≤ 0.2 |
| TKKR | 0.281 |
| RDHS | ≤ 0.2 |
| PKHT | ≤ 0.2 |
| QYNS | 0.437 |
| RWVL | ≤ 0.2 |
| AHII | ≤ 0.2 |
| RAGM | ≤ 0.2 |
| GRDT | ≤ 0.2 |
| VCSW | ≤ 0.2 |
| NRSR | ≤ 0.2 |
| VWWR | ≤ 0.2 |

| Variant | one-hybrid fitness for binding NBS DNA |
| --- | --- |
| QLCT | 0.345 |
| VDAT | ≤ 0.2 |
| EQNF | ≤ 0.2 |
| RGYL | ≤ 0.2 |
| RHAR | 0.427 |
| QRHK | 0.432 |
| RIKK | ≤ 0.2 |
| VDAD | ≤ 0.2 |
| SNEY | ≤ 0.2 |
| CVEG | ≤ 0.2 |
| QVFW | ≤ 0.2 |
| EASM | ≤ 0.2 |
| NNSR | ≤ 0.2 |
| CSVR | ≤ 0.2 |
| HVFF | ≤ 0.2 |
| KRHI | ≤ 0.2 |
| LTDF | ≤ 0.2 |
| INHN | ≤ 0.2 |
| RCMW | ≤ 0.2 |
| LADS | ≤ 0.2 |
| RWWG | ≤ 0.2 |
| VGHM | ≤ 0.2 |
| LMKA | ≤ 0.2 |
| RHTM | ≤ 0.2 |

| Variant | one-hybrid fitness for binding NBS DNA |
| --- | --- |
| GEDS | ≤ 0.2 |
| PCQC | ≤ 0.2 |
| RQQA | ≤ 0.2 |
| VLSD | ≤ 0.2 |
| GTWC | ≤ 0.2 |
| QWIT | ≤ 0.2 |
| FTHS | ≤ 0.2 |
| GPRK | ≤ 0.2 |
| KGRV | ≤ 0.2 |
| ADNE | ≤ 0.2 |
| GSLC | ≤ 0.2 |
| WYTT | ≤ 0.2 |
| SMES | ≤ 0.2 |
| TMED | ≤ 0.2 |
| PPHR | ≤ 0.2 |
| AHPM | ≤ 0.2 |
| QEKR | 0.285 |
| LSFG | ≤ 0.2 |
| ADTE | ≤ 0.2 |
| RFFT | ≤ 0.2 |
| LPSG | ≤ 0.2 |
| LSQL | ≤ 0.2 |
| SGQA | ≤ 0.2 |
| SPFC | ≤ 0.2 |

| Variant | one-hybrid fitness for binding NBS DNA |
| --- | --- |
| HMSC | ≤ 0.2 |
| RDHC | ≤ 0.2 |
| SCVR | ≤ 0.2 |
| VIGT | ≤ 0.2 |
| VKFT | ≤ 0.2 |
| RLQS | 0.382 |
| HVHI | ≤ 0.2 |
| TYKQ | ≤ 0.2 |
| WRKN | ≤ 0.2 |
| VSTV | ≤ 0.2 |
| VNKK | ≤ 0.2 |
| VQTG | ≤ 0.2 |
| YNNR | ≤ 0.2 |
| FHCC | ≤ 0.2 |
| SNDS | ≤ 0.2 |
| DMIY | ≤ 0.2 |
| NLTF | ≤ 0.2 |
| NIRL | ≤ 0.2 |

From a collection of fitness landscapes (doi:10.1016/j.celrep.2020.107928)
